This is an account of results in the supplement of paper PMC3334620.

The full ranking holds about 33,000 sequences; the median of “E-score (-0.5 to 0.5)” is about -0.041, and the highest 2% start at about 0.37. This is one part of the list.

The target in the test is T1, Ecm22 (UniProt Q05958).
T1 sequence: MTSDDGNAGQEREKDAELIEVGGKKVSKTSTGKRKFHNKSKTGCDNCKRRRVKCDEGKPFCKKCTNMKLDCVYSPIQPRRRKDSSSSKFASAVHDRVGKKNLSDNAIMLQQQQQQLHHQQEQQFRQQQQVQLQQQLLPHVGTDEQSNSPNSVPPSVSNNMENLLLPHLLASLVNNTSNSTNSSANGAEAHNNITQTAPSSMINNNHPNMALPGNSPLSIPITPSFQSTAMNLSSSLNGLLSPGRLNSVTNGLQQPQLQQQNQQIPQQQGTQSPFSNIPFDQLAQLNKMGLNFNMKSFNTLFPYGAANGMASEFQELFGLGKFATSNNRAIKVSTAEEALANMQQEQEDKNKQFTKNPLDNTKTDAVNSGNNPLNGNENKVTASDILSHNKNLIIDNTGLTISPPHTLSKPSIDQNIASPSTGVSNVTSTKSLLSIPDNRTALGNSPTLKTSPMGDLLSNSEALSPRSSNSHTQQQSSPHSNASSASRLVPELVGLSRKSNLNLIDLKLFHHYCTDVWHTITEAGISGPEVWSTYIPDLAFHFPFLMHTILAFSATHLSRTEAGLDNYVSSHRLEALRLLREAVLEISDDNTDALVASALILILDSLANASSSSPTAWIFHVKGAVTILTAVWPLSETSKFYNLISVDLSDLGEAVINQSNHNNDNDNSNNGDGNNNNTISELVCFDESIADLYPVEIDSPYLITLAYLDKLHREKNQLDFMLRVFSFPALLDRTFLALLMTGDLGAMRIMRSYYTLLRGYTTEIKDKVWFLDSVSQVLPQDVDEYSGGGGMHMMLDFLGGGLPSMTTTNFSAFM
The test is described as follows: PBM E-score (8-mer binding enrichment) (E-score (-0.5 to 0.5)); higher = stronger / more preferred TF binding; most listed sequences are background and not binding sites. To be noted: protein concentration: 200 nM; construct: GST-full length. In outline: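 For each ungapped eight-base word taken together with its reverse complement, the Universal PBM Analysis Suite assigned an E-score. Binding data came from GST-tagged yeast transcription factors, applied at about 100-200 nM, on universal all-10-mer Agilent arrays made double-stranded by primer extension. Fluorescent anti-GST marked bound protein, and scans were normalised with masliner.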
Turning to GACCAAAA, the “PBM E-score” value worked out at 0.156.

In the case of GCGGATAA, the “PBM E-score” value was -0.007.

Regarding AACTCAGT, the “PBM E-score” value was -0.281.

In the case of AACTACAC, the “PBM E-score” value came out at 0.0816.

In the case of CCGCCAAA, the “PBM E-score” value is 0.0585.

Regarding CCACCCAG, the “PBM E-score” value is -0.232.

For the sequence TACACAAA, the “PBM E-score” value turned out to be 0.212.

GTATGGAA: the “PBM E-score” value turned out to be 0.168.

GATAGTCA: the “PBM E-score” value was found to be 0.0388.

For the sequence CCTGTGAA, the “PBM E-score” value was found to be 0.0461.

As to GCTCTTAA, the “PBM E-score” value was 0.0663.

On to GGGGTAGA, for which the “PBM E-score” value is -0.206.

For the sequence AATAGCTA, the “PBM E-score” value was -0.0132.

In the case of AAAGCATA, the “PBM E-score” value was found to be 0.0772.

Turning to ATCTATAA, the “PBM E-score” value was 0.129.

Take GGGCTCCA: the “PBM E-score” value was -0.282.

As for CAGGTACA, the “PBM E-score” value is -0.23.

On to CATATTCC, for which the “PBM E-score” value was -0.0731.

On to AATCATAT, for which the “PBM E-score” value was determined as 0.065.

For the sequence CTGTGTAA, the “PBM E-score” value is -0.00046.

In the case of TAGGGAAA, the “PBM E-score” value was -0.0897.

On to CAGGATAC, for which the “PBM E-score” value is -0.0107.

Turning to CTTTCATA, the “PBM E-score” value worked out at 0.0788.

Take GTGACAAC: the “PBM E-score” value is -0.147.

For the sequence AAGCCTCC, the “PBM E-score” value is -0.208.

With GCTAGAGA, the “PBM E-score” value was 0.116.

For GAGATGAA, the “PBM E-score” value came out at 0.0324.

With AAAATAGG, the “PBM E-score” value was -0.132.

On to CCGGCGCC, for which the “PBM E-score” value was -0.0524.

Regarding CGACTCTC, the “PBM E-score” value is 0.127.

Turning to GAAAGACC, the “PBM E-score” value is -0.149.

Consider ACGGTTCG, for which the “PBM E-score” value was 0.153.

For the sequence CTTGATTA, the “PBM E-score” value was -0.227.

Turning to GGTGGACA, the “PBM E-score” value is -0.196.

Consider AAATTCGG, for which the “PBM E-score” value is 0.0394.

As to CTATATCA, the “PBM E-score” value was -0.0165.

Regarding ATAGAGTG, the “PBM E-score” value was -0.0505.

As to ACGTTCGA, the “PBM E-score” value was -0.105.

Consider AAAATGTA, for which the “PBM E-score” value is 0.0403.

For the sequence ATGACCAG, the “PBM E-score” value is -0.205.

On to AGATGAAC, for which the “PBM E-score” value amounted to 0.0914.

With GGTTGCGA, the “PBM E-score” value was determined as 0.123.

Turning to CGGGGTTA, the “PBM E-score” value stood at 0.0528.

As for AAGTTGCG, the “PBM E-score” value was found to be 0.0127.

In the case of ATAGCAAT, the “PBM E-score” value stood at 0.0353.

In the case of AATGTTGC, the “PBM E-score” value turned out to be 0.101.

In the case of CAGGCACG, the “PBM E-score” value was -0.112.

Take CCCGCTCC: the “PBM E-score” value was -0.0292.

In the case of AAGGCCGC, the “PBM E-score” value is -0.126.

As to AGATTGGC, the “PBM E-score” value was -0.0974.

Take AGAGCAGG: the “PBM E-score” value is -0.0878.

TATCGAGA: the “PBM E-score” value was determined as 0.111.

CCCAGGGG: the “PBM E-score” value was -0.27.

In the case of ACAAGACT, the “PBM E-score” value was -0.0403.

As for GGTAGCCA, the “PBM E-score” value was -0.182.

Consider TGTGTAAA, for which the “PBM E-score” value was -0.0334.

With ACCGTAGT, the “PBM E-score” value amounted to 0.179.

With AACAATCA, the “PBM E-score” value is -0.0645.

Consider CAATCACA, for which the “PBM E-score” value was determined as 0.0358.

Consider AAACCCAA, for which the “PBM E-score” value was -0.203.

ATGAATTC: the “PBM E-score” value was -0.0262.

As to ATCATAGG, the “PBM E-score” value was -0.0957.

With CACTTTCC, the “PBM E-score” value was -0.38.

As to ACCCGAAG, the “PBM E-score” value amounted to 0.0561.

Take GCGTTAGC: the “PBM E-score” value was -0.158.

Take AGGTGTCA: the “PBM E-score” value was -0.142.

For the sequence TGTTCAAA, the “PBM E-score” value is -0.139.

As to GGGTGCGA, the “PBM E-score” value amounted to 0.199.

Take AAAAATCA: the “PBM E-score” value was -0.0853.

With GTTCAGGA, the “PBM E-score” value stood at 0.126.

On to CCATACAA, for which the “PBM E-score” value was -0.0579.

On to CCGAAAAA, for which the “PBM E-score” value was found to be 0.128.

Regarding CAAATTAC, the “PBM E-score” value was 0.023.

Turning to GAGACGAC, the “PBM E-score” value stood at 0.16.

Take CTTAGGAA: the “PBM E-score” value was -0.00034.

Regarding TCAACTAA, the “PBM E-score” value was -0.0383.

GACGTTAA: the “PBM E-score” value worked out at 0.0928.

Take AGAGTAAC: the “PBM E-score” value was -0.0497.

In the case of ACGATAGG, the “PBM E-score” value was determined as 0.208.

In the case of AACTTAGG, the “PBM E-score” value was -0.12.

As to GTCTGGCA, the “PBM E-score” value is -0.243.

On to ACGGCAGG, for which the “PBM E-score” value came out at 0.0317.

In the case of GTATATGA, the “PBM E-score” value was 0.207.

On to ATTTACTA, for which the “PBM E-score” value stood at 0.0632.

Turning to CCGGATAA, the “PBM E-score” value is 0.0584.

For ATTTTTCG, the “PBM E-score” value was 0.0816.
